Test results published in the RNAGym collection of RNA variant scans (doi:10.7554/elife.90254).
Read counts are not given, so values of variants with three or more changes are uncertain.

B1: LINE1-mini (parent)
chain: GGCAGAGCUCAACACAGCGUGGCAAAGUGGCUGUGGCUAGACUGCC

Variants of: B1
Test: self-cleavage, relative activity (ratio to wild type); higher = more cleavage; in vitro, sequencing; the parent is a self-cleaving ribozyme

Variant | self-cleavage
A4U A16U U20G G33C | 0.02
G1U G5U C15A C18A | 0.03
G29U U34G G35A U43C | 0.04
G2U A6U U20C | 0.05
C3G G35C G40U G44C | 0.09
G2A C18U U20A | 0.24
G5U G36C U38A | 0.03
G1C C10U A11U C31G G40C U43C C45A | 0
G5U C18A G19A | 0.02
G2C A6U A12G A41G | 0.03
G5U C8U C15G C23U U32A C45U | 0.11
G7U U20A G29A | 0
C10U G17U C18U U34C G44U | 0.04
C8U A11G C13U C37A A39G | 0.01
C10A G17A G29A | 0.05
G2U C23G C37A U38A | 0.02
G19C C31A G44C | 0.08
C10U C15U C31U | 0.17
A6G G7U G17A C37G | 0.01
C10U A14C G21U | 0.04
G1A G5A G22A G27U | 0.18
G2C C3G G5U A6C C13A G27A | 0.02
C15G G27U G30C C31G | 0.02
A6G G17C G35U | 0.05

Variant | self-cleavage
G5U A12G C37U | 0.01
G7U C8G C13U A14C | 0.02
A25U U32A G36U | 0.03
A4U C15G C42U | 0.02
G2C A14C G35U | 0.08
A11G A12C A16U G19A G21A | 0.02
C3U G30U G36C A39U | 0.41
G5C C15G C18A G19U U20C U32A | 0.01
U20G G33A C42U | 0.04
C10A C23A A24C G35U | 0.01
G2U A4G A39U C45G | 0.04
G5U U9C A14U U34G G40U C42U | 0.02
G7A A11G A12C C42U U43G | 0.01
G7U A14G U28C | 0.03
G22U G27C G36C | 0.14
G17A A26U G27C G36C | 0.07
A6C C8G A39U C42G | 0.06
A4G A26U U32C G33U | 0
G1A G7A C46U | 0.47
C15U G27C G35U C37G | 0.22
A6C C8A C10A G44U | 0.26
G27C C42U G44C | 0.03
G2C C13A C31A | 0.1
G2A A6C G7A G29A G36C | 0.06

Variant | self-cleavage
C8A U9A A11U U32C G35U C37A | 0.02
G1U G7U C23G G36A | 0.01
C8G U9G C15G | 0.11
U9C A26C G29A G36A G40U C46U | 0.02
G19A C23U G27A G29A U32G C37A U38C | 0.03
C8A A11C G36C | 0.02
G5C C8U U28G G33C A41C G44U | 0.02
G17C G22U C31A U38A G44A | 0.04
G2C A11U G22A | 0.02
C3A G5U C13G A25C U32A G40U | 0.04
A6G G7U C10U U34A G36U C37A | 0.02
C13G A41U G44A | 0.04
C8G A14G A24U C31G | 0.08
C10U A12C C37G G40C | 0
A4U G21U G22A | 0.56
G19C G29U U38A G40U A41U | 0.05
C18U G36A C42A | 0.14
A6U C23G U43G | 0.01
C23A U28G U32A U38C C45A | 0.02
A25G G27C U28C U32C G33U U43A | 0.01
G21C U28G C37A C46U | 0.01
A4C G5U C45A | 0.08
C23U U32G G40U | 0.04
G7C A26C U43A | 0.54

Variant | self-cleavage
C15U G35U A41C | 0.11
G5A C18A G30U G33A | 0.05
A6G G7U C10G U20G G27U G44C | 0.01
C18G U20A G29C U32G G36U | 0.02
U9A A12U A26G | 0.16
A12C C15U A16G C45G C46G | 0.02
G19C A25C A39U | 0.12
C10U C13A G22U | 0.02
G17U C37A C46A | 0.03
G1U G29A G35C C42U | 0.07
G2U C18U G21U U38C | 0.02
A11G G22U C42U | 0.02
A6U G21U G33A | 0.12
A14C A25U C37G | 0.26
A4C C13U U20G | 0.02
G7C G17A U20G U34G | 0.06
G5U A12U U43C C45A | 0.05
G2U C31G G44C C45A | 0.01
C8U C13A A16U G22C U32G C37G C45A | 0.01
G1U A11G U28G | 0
C10U C15G G35U | 0.04
C18G U32G G36A U38C C46A | 0.11
C18G G21A A39G | 0.1
G19C G35U C37U | 0.02

Variant | self-cleavage
G17U C31G A39U G40C | 0.09
G27U G30U U43C | 0.04
C15G G21U U34G | 0.02
C3G A12G G17U G36C U43G | 0
A12U C13U U32A | 0.06
G5C U9C C18A U28G C45U | 0.01
G2C A12U C15A C31U | 0
C10U A14C G21U G40C | 0.02
G17A U34C G35A G40A | 0.19
C18U G21U A26U G36A U38A A39G G44A | 0.04
G2A A6G A14C A16U G35U G40U | 0.01
A6G G21C G33C | 0.05
G21A G22U U38G A41G | 0.03
C8A G27C A39U | 0.2
U9A G21C G22A A25U G27A | 0.04
G2A U9C A14G C15G | 0.08
C3G C10U A12G | 0.02
G22A A25G G44A | 0.16
A6G C8A G29U | 0.36
A14C U32G C42G | 0.01
A6G A24G A39G C45A | 0.1
G2C A11G A12U G17U G29C | 0.01
A14G G17A C42A | 0.12
C8U G29U C31U A41G U43A C45U | 0.28

Variant | self-cleavage
G2U C3A C18A G21C U32G C42A C45U | 0.05
G1U C10U C15A C18A | 0.01
G27A C31G G44C | 0.07
A24U G27A C31G C45U | 0.57
G1U C15U C23U A24G A39U | 0.04
G5A C13U G21A A26C | 0.14
G1U C13U C18A G40C | 0.01
A12G U20G A24U C31U U32C | 0.03
A12C A16C G35A C46U | 0.03
G1A C3U C13G A14U | 0.27
G35A A39U C45U | 0.05
C3G C13U A16U U32G | 0.08
G1U G7C C42G | 0.13
C15U G21C C23G G33C C37G | 0.03
C23A U28G C42U U43A | 0.05
C3A G36A G44U | 0.12
C10G A24G C45A | 0.03
U9A G22A U43G | 0.37
A11G C31A G33U | 0.01
A12U G19C C23G G40A | 0.03
A4U C13G U28A G29A G36U G40A | 0.38
G17C A25C G36A C45A | 0.03
C23U C37A G44A | 0.41
A6G C10G G21A | 0.01

Variant | self-cleavage
C3G A12C G17U U20A G22A G36U C42U | 0.01
G1A C18G G19C G30A A41C | 0.13
C8U A12U A25G G30U A39G | 0.06
A6U C13G A14C | 0.19
G2U A4G G19A U34G | 0.08
G5C C10A A25C | 0.03
G1U C8U G17U C42G | 0.11
A25U G30C C46A | 0.16
C3U A12G G19A | 0
U9A C15A G30U C37U C42A | 0.15
G5U G7C C13A G33U | 0.05
U9G C13G A14U A26G | 0.07
G1C G2C C3A C8G | 0.02
C3A C8G C15U A26G G33A | 0.26
A11U G27A C31G | 0.03
U20G A25G C42G | 0.02
C23U G27C U34G G40A | 0.01
G5A G21C U32G A41C | 0.04
G21U G22U C23A G29C | 0.74
G5C G7U C15G G21C A25U G35C C46U | 0.24
A6U C13A C15U C23G G27C | 0.01
G1U G17U G22C U43C | 0.02
U32A C37A U43A C46U | 0.01
